# Measured values reported in PubChem BioAssay AID1508624 (National Center for Advancing Translational Sciences (NCATS), 2021).
# About 120 (0.25%) of roughly 48,000 compounds were called active. Inconclusive results (about 4%) are left out. The call rests on the fitted dose curve; in most records, active means well fitted activation curve with a large enough effect; inconclusive means small, poorly fitted or top-dose-only effect, or another doubt; inactive means no such curve, though single readings can be large or run the other way. This is one part of the list.
# Assay: Primary qHTS for Identification of Small Molecule Activators of Huntingtin-Antisense Promoter Activity; further: nearly all actives have a fitted effect of over 55% in size
# Conditions: HEK293 HTT-AS promoter firefly luciferase reporter (activity 0% = vehicle and -100% = no light), 24 h; series mostly up to 57.5 µM; activity change, positive = activation: at the top concentration
# Method in brief: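 Luminescence was read after Dual-Glo reagent and a 10 min room-temperature incubation. Values were normalized to vehicle (0% activity) and zero RLU (-100% activity). Reporter HEK293 cells had been exposed to compounds (up to 57.5 uM final) for 24 h.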
row,SMILES,"activity change, positive = activation"
1,CCCCOc1ccc(Cn2c(=O)sc3ccccc32)cc1,inactive: -23.2%
2,COc1ccc(N2CCN(c3csc4ccccc4c3=O)CC2)cc1,inactive: 17.4%
3,CCc1ccc(NC(=O)c2nn(-c3ccc(OC)cc3)c(=O)c3c2c2ccccc2n3C)cc1,inactive: -8.86%
4,CCc1ccc(Oc2c(C(F)(F)F)oc3c(CN4CCCC(C)C4)c(O)ccc3c2=O)cc1 (stereo not drawn),inactive: -11%
5,CC(CNC(=O)CCS(=O)(=O)c1cc2c(cc1Cl)NC(=O)CO2)c1ccccc1 (stereo not drawn),inactive: -3.24%
6,CCOC(=O)c1ccccc1NC(=O)CCc1nc(-c2ccc(C)cc2)no1,inactive: -1.86%
7,CCc1ccccc1NC(=O)C1CCCN(c2cnccn2)C1 (stereo not drawn),inactive: 9.02%
8,C=C(C)C(=O)OCC(O)CO (stereo not drawn),inactive: -8.79%
9,CCOc1nc2cccc(C(=O)O)c2n1Cc1ccc(-c2ccccc2-c2nn[nH]n2)cc1,inactive: -3.19%
10,NC(=O)NN=Cc1ccc([N+](=O)[O-])o1,inactive: 2.6%
11,Cc1ccc(NC(=O)CSc2nc(=O)cc(N)n2CCc2ccccc2)cc1,inactive: -8.26%
12,O=C(Nc1cccc(NC(=O)c2ccccc2Cl)c1)c1cccc(Br)c1,inactive: -17%
13,CCC(CC)[C@H](NC(C)=O)[C@@H]1[C@H](O)[C@@H](C(=O)O)C[C@@H]1N=C(N)N,inactive: -14.9%
14,CSc1ncc(C(=O)N2CCN(c3cccc(C(F)(F)F)c3)CC2)c(C)n1,inactive: -26.8%
15,O=C(c1ccccc1)c1ccccc1,inactive: 1.01%
16,COc1ccccc1OCC(=O)Nc1c(C(=O)c2ccc(F)cc2)oc2ccccc12,inactive: -17%
17,Cc1ccc2c(c1)N(CCCC(=O)NCc1cccc(F)c1)C(=O)CO2,inactive: -5.47%
18,Cc1ncc(CO)c(CN)c1O,inactive: -5.82%
19,COc1ccc(NC(=O)C(NC(=O)/C=C\c2ccc3c(c2)OCO3)c2ccccc2)cc1 (stereo not drawn),inactive: -13.1%
20,Cc1ccc(NC(=O)C2CCN(S(=O)(=O)c3cc(-c4noc(C)n4)ccc3C)CC2)c(C)c1,inactive: -69.3%
21,CCCN(CCC)CCCNC(=O)c1cc2c(=O)[nH]c3ccccc3c2n1C,inactive: -6.68%

row,SMILES,"activity change, positive = activation"
1,COc1cccc(-n2c(=O)c3sc4ccccc4c3n(CC(=O)Nc3ccccc3C)c2=O)c1,inactive: -17.6%
2,O=C(CSc1c2c(nc3cc(Cl)ccc13)CCCC2)NCc1ccccc1Cl,inactive: -62.9%
3,COc1ccc(C2CC(=O)c3cc(-c4nc(-c5cccc([N+](=O)[O-])c5)cs4)c(=O)n(-c4ccc(OC)cc4)c3C2)cc1 (stereo not drawn),inactive: -3.97%
4,COc1ccc(C2N3CC4(C)CN2CC(c2ccccc2)(C3)C4=O)cc1OC (stereo not drawn),inactive: 11%
5,CCOc1ccc(OCC)c(NC(=O)C2CCN(c3cnccn3)CC2)c1,inactive: -12%
6,N#Cc1cccc(NC(=O)c2ccc3c(c2)N(Cc2cccc(Cl)c2)C(=O)c2ccccc2S3(=O)=O)c1,inactive: -29.3%
7,O=C(Nc1nnc(S(=O)(=O)N2CCOCC2)s1)c1ccc(F)cc1,inactive: 2.84%
8,O=C(c1ccc(F)cc1F)N1CCC(c2noc(-c3ccc(S(=O)(=O)N4CCCC4)cc3)n2)CC1,inactive: -2.45%
9,Cc1ccccc1-c1noc(-c2ccccc2OCC(=O)Nc2ccccc2[N+](=O)[O-])n1,inactive: -13.5%
10,CCc1ccc(S(=O)(=O)c2nnn3c2nc(NCc2ccccc2OC)c2cc(Cl)ccc23)cc1,inactive: 16.2%
11,O=C(C=Cc1c(C(=O)O)[nH]c2cc(Cl)cc(Cl)c12)Nc1ccccc1,inactive: -15.3%
12,CCc1ccc(NC(=O)CN(Cc2ccccc2)S(=O)(=O)c2ccc3nc(C)sc3c2)cc1,inactive: -22.9%
13,Cn1c(=O)oc2cc(S(=O)(=O)Nc3ccc(O)cc3)ccc21,inactive: -7.62%
14,COc1ccc(C2NC(=O)N(C)C3=C2C(=O)N(c2ccc(C)cc2)C3)cc1 (stereo not drawn),inactive: -18.5%
15,O=C(CCn1cnc2onc(-c3ccc(F)cc3)c2c1=O)N1CCN(c2cccc(Cl)c2)CC1,inactive: -27.4%
16,O=C(Nc1ccccc1C(F)(F)F)N1CCN(c2ccc3nnc(-c4ccc(F)cc4)n3n2)CC1,inactive: -34.7%
17,CCOc1ccc(CNC(=O)C2Cc3cc(S(=O)(=O)N4CCCCCC4)ccc3N2C(C)=O)cc1 (stereo not drawn),inactive: -12.6%
18,CCC(C(=O)NCCCN(CC)CC)n1ncn2c(cc3occc32)c1=O (stereo not drawn),inactive: -6.64%
19,Cc1ccc(NC(=O)Cn2c(-c3nonc3N)nc3ccccc32)cc1Cl,inactive: -11.1%
20,CCc1ccc(NC(=O)C(=O)NCC(c2cccnc2)N2CCOCC2)cc1 (stereo not drawn),inactive: -20%
21,O=C(c1ccc(F)cc1)C1CCN(CCn2c(=S)[nH]c3ccccc3c2=O)CC1,inactive: -15.1%

row,SMILES,"activity change, positive = activation"
1,CCc1ccc(NC(=O)c2cc3c(=O)n(Cc4cccnc4)ccc3nc2C)cc1,inactive: -22.1%
2,O=C(O)Cn1nnc(-c2cc(N3CCC(Oc4cc(F)ccc4Br)CC3)no2)n1,inactive: -34.1%
3,Cc1cccc(C(=O)Nc2cccc(OCc3cc(=O)n4c(C)csc4n3)c2)c1,inactive: -16.5%
4,CC(C)c1nn2c(=O)cc(COC(=O)CNC(=O)c3ccccc3)nc2s1,inactive: 4.41%
5,OCCc1ccccc1,inactive: -1.94%
6,COc1ccc(NC(=O)Cc2csc(COc3cccc(C)c3)n2)c(OC)c1,inactive: -12.3%
7,COc1ccc(-c2noc(CCC(=O)NCc3ccc(OC)cc3OC)n2)cc1,inactive: -25.9%
8,CCCN(CCC)CC(O)Cn1cc(/C=C/C(=O)c2ccc(OCC)cc2)c2ccccc21 (stereo not drawn),inactive: -40.2%
9,O=C(O)c1ccccc1Nc1cccc(C(F)(F)F)c1,inactive: -9.46%
10,COc1ccc(OCC(=O)NCCS(=O)(=O)N2CCN(c3cccc(Cl)c3)CC2)cc1,inactive: -21.8%
11,CCn1cc(C(=O)N(C)Cc2ccccc2)c(=O)c2cc(S(=O)(=O)N3CCCCCC3)ccc21,inactive: -12.3%
12,Cc1ccc2oc(=O)n(CCNC(=O)Nc3ccc(C)c(F)c3)c2c1,inactive: -3.14%
13,c1ccc(-c2nn3c(c2-c2ccnc4cc(OCCN5CCOCC5)ccc24)CCC3)nc1,inactive: -23.3%
14,Cc1ccccc1CSc1nc2cccnc2n1Cc1ccc(C(=O)NCCc2cccs2)cc1,inactive: 9.86%
15,COc1ccc(Cl)cc1N(C)C(=O)C(=O)Nc1ccc2nc3n(c(=O)c2c1)CCCCC3,inactive: -10.9%
16,Cc1ccc(CN(C(=O)COc2ccc(Br)cc2)c2ccccn2)o1,inactive: -40.9%
17,Cc1ccc(N2CCN(C(=O)c3noc4c3COc3ccc(C)cc3-4)CC2)c(C)c1,inactive: -19.8%
18,COc1ccc(NC(=O)CSc2nc(-c3ccccc3)nc3c2Cc2c(CO)cnc(C)c2O3)cc1Cl,inactive: -13.5%
19,Cc1ccc(C)c(N2CCN(C(=O)C(C)n3c(C)c4cnn(-c5ccccc5)c(=O)c4c3C)CC2)c1 (stereo not drawn),inactive: -5.27%
20,Cc1ccc(CNC(=O)c2c(-c3cccc(Br)c3)noc2C)o1,inactive: -18.5%
21,CC(Nc1ccc(-c2nc(-c3ccccn3)no2)cc1[N+](=O)[O-])c1ccccc1 (stereo not drawn),inactive: 14.3%
